Results on one molecule are retold here after patent publication US20220306753A1 (JN BIOSCIENCES, published 2022).

Assay [1] concerns the target T1, Human B7-1/CD80 Protein, Mouse IgG2a Tag (human, UniProt P33681 35-242).
T1 construct: Bought protein coated on the ELISA plate; also called Cat. No. B71-H52A4, Acro Biosystems; not shown: mouse IgG2a tag of the bought protein
T1 sequence (looked up): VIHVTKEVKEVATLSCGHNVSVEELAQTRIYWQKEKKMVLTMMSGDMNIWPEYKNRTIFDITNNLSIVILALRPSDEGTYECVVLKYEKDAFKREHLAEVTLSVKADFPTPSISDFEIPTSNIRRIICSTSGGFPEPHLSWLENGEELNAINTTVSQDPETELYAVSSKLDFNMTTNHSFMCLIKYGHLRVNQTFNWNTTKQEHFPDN
Briefly: ELISA, plate coated with 1 µg/ml CD80 mouse IgG2a tag protein, binder from 0.5 µg/ml in 2-fold dilutions, anti-human kappa-HRP. Here is the method:
(§1) Binding of HuABC2-CTLA4 and HuABC2-CTLA4YE to human CD122, CD80 and CD86 was analyzed by ELISA. Wells of an ELISA plate were coated with 1 μg/ml of either CD122 (Human IL-2R beta/CD122 Protein, Fc Tag; Cat. No. ILB-H5253, Acro Biosystems, Newark, Del.), CD80 (Human B7-1/CD80 Protein, Mouse IgG2a Tag; Cat. No. B71-H52A4, Acro Biosystems) or CD86 (Human B7-2/CD86 Protein, Fc Tag; Cat. No. CD6-H5257, Acro Biosystems) in PBS. After blocking with Blocking Buffer and washing the wells with Wash Buffer, transiently expressed HuABC2-CTLA4 and HuABC2-CTLA4YE at 0.5 μg/ml and serial 2-fold dilutions in ELISA Buffer were applied to the wells in duplicates. Purified HuABC2 at 0.5 μg/mland serial 2-fold dilutions was used as a control. After incubation for 1 hr at room temperature and washing with Wash Buffer, bound antibodies were detected using HRP-conjugated goat anti-human kappa chain polyclonal antibody. After incubation for 30 min and washing with Wash Buffer, color development was initiated by adding ABTS substrate and stopped with 2% oxalic acid. Absorbance was read at 405 nm.
For orientation: ELISA stands for enzyme-linked immunosorbent assay.

The target of the next assay is T2, CD86-FLAG-GPI (human).
T2 construct: also called CHO-K1/CD86 cells
T2 chain: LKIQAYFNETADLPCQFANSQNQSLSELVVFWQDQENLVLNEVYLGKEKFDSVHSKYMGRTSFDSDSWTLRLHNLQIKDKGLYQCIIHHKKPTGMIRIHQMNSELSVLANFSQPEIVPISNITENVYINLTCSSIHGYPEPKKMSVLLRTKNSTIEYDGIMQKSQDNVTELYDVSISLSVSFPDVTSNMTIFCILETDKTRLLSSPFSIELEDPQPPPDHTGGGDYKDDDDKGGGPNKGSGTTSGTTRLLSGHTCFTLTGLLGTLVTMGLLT
Kind of assay: flow cytometry on CHO-K1/CD86 cells, binder at 625 ng/ml, PE anti-human IgG. As to the method:
(§2) CHO-K1 stable transfectants expressing CD80-FLAG-GPI (CHO-K1/CD80) and CD86-FLAG-GPI (CHO-K1/CD86) were generated by electroporation with pFCm553 and pFCm554, respectively, as described above. Binding of HuABC2-CH3-CTLA4YE, HuABC2-Ck-CTLA4YE, HuABC2-CTLA4YE-VH and HuABC2-CTLA4YE-Vk to CHO-K1/CD80 and CHO-K1/CD86 cells was analyzed by flow cytometry. Belatacept (also known as LEA29Y and Nulojix; SEQ ID NO:49), which is a CTLA4-Ig fusion protein carrying a substitution of an alanine residue to a tyrosine residue at position 29 (A29Y) and another substitution of a leucine residue to a glutamate residue at position 104 (L104E) of SEQ ID NO:10 (Larsen et al., Am. J. Transplant. 5:443-453, 2005; Oshima et al., Protein Eng. Des. Sel. 29:159-167, 2016), was purchased from Creative Biomart (Cat. No. THP-0109, Shirley, N.Y.) and used as a reference in the experiments.
(§3) Purified test samples (HuABC2-CH3-CTLA4YE, HuABC2-Ck-CTLA4YE, HuABC2-CTLA4YE-VH, and HuABC2-CTLA4YE-Vk) and belatacept, starting at 10 μg/mland five steps of 4-fold serial dilutions, were incubated with CHO-K1/CD80 or CHO-K1/CD86 cells in FACS Buffer (PBS containing 0.5% BSA and 0.05% sodium azide) for 30 min at 4° C. After washing with FACS Buffer, cells were incubated with PE-labeled goat anti-human IgG antibody (SouthernBiotech, Birmingham, Ala.) in FACS Buffer for 20 min at 4° C. After washing and suspension in FACS Buffer, stained cells were subjected to flow cytometry.
The binding patterns of HuABC2-CH3-CTLA4YE, HuABC2-Ck-CTLA4YE, HuABC2-CTLA4YE-VH, HuABC2-CTLA4YE-Vk and belatacept to CHO-K1/CD86 cells are shown in FIG. 9B. Like the case with CHO-K1/CD80 cells, while the binding of each of HuABC2-CTLA4YE-VH and HuABC2-CTLA4YE-Vk to CD86 was only slightly weaker than the binding of belatacept, the binding of HuABC2-CH3-CTLA4YE and HuABC2-Ck-CTLA4YE was a lot weaker than the binding of belatacept.

The next assay addresses T3, CD80-FLAG-GPI (human).
T3 construct: also called CHO-K1/CD80 cells
T3 chain: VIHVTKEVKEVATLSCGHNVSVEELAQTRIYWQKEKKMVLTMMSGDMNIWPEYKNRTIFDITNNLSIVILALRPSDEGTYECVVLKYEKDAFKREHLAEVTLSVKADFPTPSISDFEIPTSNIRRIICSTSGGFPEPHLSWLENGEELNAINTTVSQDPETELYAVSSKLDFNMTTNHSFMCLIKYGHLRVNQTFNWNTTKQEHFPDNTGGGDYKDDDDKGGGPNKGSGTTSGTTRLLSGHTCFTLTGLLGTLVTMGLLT
Kind of assay: flow cytometry on CHO-K1/CD80 cells, binder at 625 ng/ml, PE anti-human IgG. As to the method: as §2, §3
The binding patterns of HuABC2-CH3-CTLA4YE, HuABC2-Ck-CTLA4YE, HuABC2-CTLA4YE-VH, HuABC2-CTLA4YE-Vk and belatacept to CHO-K1/CD80 cells are shown in FIG. 9A. While the binding of each of HuABC2-CTLA4YE-VH and HuABC2-CTLA4YE-Vk to CD80 was only slightly weaker than the binding of belatacept, the binding of HuABC2-CH3-CTLA4YE and HuABC2-Ck-CTLA4YE was a lot weaker than that of belatacept.
In general terms: In flow cytometry, cells or beads pass a laser one at a time.

The target of assay [2] is T4, Human IL-2R beta/CD122 Protein, Fc Tag (human, UniProt P14784 27-239).
T4 construct: Bought protein coated on the ELISA plate; also called Cat. No. ILB-H5253, Acro Biosystems; not shown: Fc tag of the bought protein
T4 sequence (looked up): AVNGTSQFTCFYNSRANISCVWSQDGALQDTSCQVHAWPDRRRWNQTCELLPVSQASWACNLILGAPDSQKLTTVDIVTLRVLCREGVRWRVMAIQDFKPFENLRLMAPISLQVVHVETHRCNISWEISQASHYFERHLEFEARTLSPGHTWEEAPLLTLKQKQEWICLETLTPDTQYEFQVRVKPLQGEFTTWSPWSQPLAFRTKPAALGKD
Kind of assay: ELISA, plate coated with 1 µg/ml CD122 Fc tag protein, binder from 0.5 µg/ml in 2-fold dilutions, anti-human kappa-HRP. As to the method:
as §1

The target of assay [3] is T5, Human B7-2/CD86 Protein, Fc Tag (human, UniProt P42081 24-247).
T5 construct: Bought protein coated on the ELISA plate; also called Cat. No. CD6-H5257, Acro Biosystems; not shown: Fc tag of the bought protein
T5 sequence (looked up): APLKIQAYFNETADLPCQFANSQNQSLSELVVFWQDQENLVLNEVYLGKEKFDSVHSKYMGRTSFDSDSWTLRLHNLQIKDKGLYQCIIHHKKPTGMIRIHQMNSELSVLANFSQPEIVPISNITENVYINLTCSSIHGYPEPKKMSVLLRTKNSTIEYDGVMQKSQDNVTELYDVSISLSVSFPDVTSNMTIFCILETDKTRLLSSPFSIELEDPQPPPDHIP
Kind of assay: ELISA, plate coated with 1 µg/ml CD86 Fc tag protein, binder from 0.5 µg/ml in 2-fold dilutions, anti-human kappa-HRP. Here is the method: as §1

B1: HuABC2-CTLA4YE (other)
heavy: EVQLVESGGGLVQPGGSLRLSCAASGFTFSDFYMEWVRQAPGKGLEWIAASRNKANDYTTEYSASVKGRFIVSRDDSKNSLYLQMNSLKTEDTAVYYCARSYYRYDGMDYWGQGTTVTVSSASTKGPSVFPLAPSSKSTSGGTAALGCLVKDYFPEPVTVSWNSGALTSGVHTFPAVLQSSGLYSLSSVVTVPSSSLGTQTYICNVNHKPSNTKVDKKV[gap - human IgG1 Fc with changes]SGGGGSGMHVAQPAVVLASSRGIASFVCEYASPGKYTEVRVTVLRQADSQVTEVCAATYMMGNELTFLDDSICTGTSSGNQVNLTIQGLRAMDTGLYICKVELMYPPPYYEGIGNGTQIYVIDPEPCPDSD
light: EIVLTQSPATLSLSPGERATLSCSAISSVSYMYWYQQKPGQAPRLLIYDTSNLVSGVPARFSGSGSGTDYTLTISSLEPEDFAVYYCQQWNTYPYTFGGGTKVEIKRTVAAPSVFIFPPSDEQLKSGTASVVCLLNNFYPREAKVQWKVDNALQSGNSQESVTEQDSKDSTYSLSSTLTLSKADYEKHKVYACEVTHQGLSSPVTKSFNRGEC
notes: Bifunctional molecule: HuABC2 IgG1 (L234A/L235A) with variant CTLA-4 extracellular domain (A29Y, L104E); encoded by pHC625/pHC622; also called HuABC2-CH3-CTLA4YE
For the molecule B1, the binding result in assay [1], in assay [2] and in assay [3] was “binds” in each case. For the same molecule, the “mean channel fluorescence (MCF)” value turned out to be 221 with CD86-FLAG-GPI and 425 in the assay with CD80-FLAG-GPI.
